Results published in PubChem BioAssay AID504339 (National Center for Advancing Translational Sciences (NCATS), 2011).
Hit rate of the full screen: of about 390,000 compounds, about 17,000 (4.4%) were called active. The shares of active, inactive and inconclusive entries below differ from those in the screen. Calls follow the shape of the dose curve; as a rule, active = well fitted inhibition curve with a large enough effect; inconclusive = small, poorly fitted or top-dose-only effect; inactive = no such curve, though single readings can be large or run the other way. Where the call is inconclusive, the potency comes from a doubtful curve fit.

target: Lysine-specific demethylase 4A (Homo sapiens) (UniProt O75164); assay: qHTS Assay for Inhibitors of JMJD2A-Tudor Domain; conditions: AlphaScreen JMJD2A-Tudor / H3K4me3 peptide binding; activity change, negative = inhibition: at 114 µM (top of the series); also: nearly all actives have a fitted effect of over 50% in size
Chain of UniProt O75164 (O75164 whole entry, looked up, the tested form may be a part): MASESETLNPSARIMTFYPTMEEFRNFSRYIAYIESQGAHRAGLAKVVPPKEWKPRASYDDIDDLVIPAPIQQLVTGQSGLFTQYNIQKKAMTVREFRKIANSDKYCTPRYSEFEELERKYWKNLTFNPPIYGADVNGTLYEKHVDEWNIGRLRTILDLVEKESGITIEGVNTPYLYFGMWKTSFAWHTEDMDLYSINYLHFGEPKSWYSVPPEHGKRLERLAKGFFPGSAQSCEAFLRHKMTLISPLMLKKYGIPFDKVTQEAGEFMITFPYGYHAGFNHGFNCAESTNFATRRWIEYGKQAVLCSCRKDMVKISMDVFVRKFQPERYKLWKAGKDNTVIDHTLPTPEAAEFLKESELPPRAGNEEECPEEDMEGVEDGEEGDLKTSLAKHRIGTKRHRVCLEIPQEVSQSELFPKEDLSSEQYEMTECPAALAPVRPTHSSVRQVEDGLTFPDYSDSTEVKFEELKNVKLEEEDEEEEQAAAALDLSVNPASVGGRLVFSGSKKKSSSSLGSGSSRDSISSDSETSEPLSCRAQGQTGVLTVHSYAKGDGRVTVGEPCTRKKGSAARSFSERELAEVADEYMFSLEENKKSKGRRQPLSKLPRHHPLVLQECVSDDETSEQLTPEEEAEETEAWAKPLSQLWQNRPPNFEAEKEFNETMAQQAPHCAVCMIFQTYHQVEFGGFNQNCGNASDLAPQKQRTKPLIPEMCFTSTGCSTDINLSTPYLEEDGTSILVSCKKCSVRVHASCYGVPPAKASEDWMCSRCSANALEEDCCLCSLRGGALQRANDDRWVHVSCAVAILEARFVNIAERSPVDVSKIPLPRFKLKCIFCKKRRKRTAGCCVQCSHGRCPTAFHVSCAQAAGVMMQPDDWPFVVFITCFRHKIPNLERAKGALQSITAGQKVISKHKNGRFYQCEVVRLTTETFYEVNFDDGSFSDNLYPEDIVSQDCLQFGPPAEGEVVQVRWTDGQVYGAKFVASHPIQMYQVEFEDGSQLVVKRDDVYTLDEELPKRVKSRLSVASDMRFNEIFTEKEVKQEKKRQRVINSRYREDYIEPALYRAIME
% is scaled to controls: 0 for no effect and ±100 for the full control effect; potency is read from the fitted curve at half-maximal effect; tags tell the direction and shape of the fitted curve.

Row | Structure (SMILES) | Potency | activity change, negative = inhibition
1 | CCOC(=O)C1=C(C)NC(C)=C(C(=O)OCC)C1c1ccc([N+](=O)[O-])s1 | inconclusive: 39.8 µM [inhibitor, full curve] | 
2 | O=C(O)c1ccc(N=N/C(=N\Nc2ccc(C(=O)O)cc2)c2ccccc2)cc1 | active: 50.1 µM | 
3 | Nc1ccc2nc(Cc3ccccc3)[nH]c2c1 | inconclusive: 17.8 µM [inhibitor, full curve] | 
4 | CCN(CC)CCN(C(=O)c1ccc2ncsc2c1)c1nc2cc3c(cc2s1)OCO3 | active: 50.1 µM | 
5 | O=C(CN1CCN(C(=O)c2ccco2)CC1)Nc1cccc(S(=O)(=O)N2CCCC2)c1 | inactive | 
6 | Cc1ccc(S(=O)(=O)N2CCN(c3nc(-c4ncccn4)nc4ccccc34)CC2)cc1 | inconclusive: 3.55 µM [inhibitor, full curve, poor fit] | 
7 | CC(C)C[C@@H](CNCC(=O)[C@H](Cc1c[nH]c2ccccc12)NC(=O)c1[nH]cnc1C(=O)N[C@H](CN)CC(C)C)NC(=O)c1nc[nH]c1C(=O)N[C@@H](CC(=O)O)C(=O)O | active: 39.8 µM | 
8 | Cc1nc2c(c(N3CCOCC3)n1)OCC(=O)N2 | inactive | 
9 | CC(Oc1ccccc1)C(=O)Nc1nc(-c2ccncc2)cs1 (configuration not stated) | inactive | 
10 | C=CCN1C(=O)C(CC(=O)Nc2ccc(OCCC)cc2)N(CCCN2CCN(Cc3ccccc3)CC2)C1=S (configuration not stated) | inconclusive: 63.1 µM [inhibitor, partial curve] | 
11 | CCOC(=O)c1sc(NC(=O)C(C)C)c(C#N)c1C |  | inconclusive: -88.4% [inhibitor]
12 | Cc1[nH]n(-c2ccccc2)c(=O)c1N=Nc1ccc2c(c1)OCCO2 | active: 22.4 µM | 
13 | O=C(NC1CCCCC1)C(c1ccc(F)cc1)N(CCN1CCOCC1)C(=O)c1ccc(-c2ccccc2)[nH]1 (configuration not stated) | inactive | 
14 | CCCc1ncc(C(O)(c2ccccc2)c2ccccc2)n1C | inactive | 
15 | COc1cccc2c(C)nc(Nc3nc(CSc4nnc(C)s4)cc(=O)[nH]3)nc12 | inconclusive: 15.8 µM [inhibitor, partial curve] | 
16 | Nc1nc2ncc(C(=O)c3cc(Cl)cc(Cl)c3O)cc2s1 | inconclusive: 89.1 µM [inhibitor, partial curve] | 
17 | O=C(N/N=C/C=C/c1ccco1)c1ccncc1 | active: 79.4 µM | 
18 | CCc1ccc(CN2CCc3nc(N4CCN(c5ccccc5F)CC4)ncc3C2)cc1 | inactive | 
19 | Cc1ccc(Cl)cc1N1CCN(C(=O)c2c(C)oc3ncnc(N4CCCCC4)c23)CC1 | inconclusive: 50.1 µM [inhibitor, partial curve] | 
20 | CC(c1ccccc1)n1cc2c(c1-c1ccccc1Br)c(=O)n(C)c(=O)n2C (configuration not stated) | inconclusive: 79.4 µM [inhibitor, partial curve] | 
21 | COc1ccc(-c2cnc(C)o2)cc1S(=O)(=O)Nc1c(C)cc(C)cc1C | inconclusive: 79.4 µM [inhibitor, partial curve] | 
22 | O=c1c(CO)cc(CO)cc(CO)c1O | active: 22.4 µM | 
23 | Cc1ccc(Cc2cc(-c3ccc(C)cc3)n[nH]c2=O)cc1 | inactive | 
24 | Cc1cc(=O)n(CCO)c(O)c1C#N | inconclusive: 22.4 µM [inhibitor, full curve] | 

Row | Structure (SMILES) | Potency | activity change, negative = inhibition
25 | CC(C)(C)OC(=O)NCCCCCO | inactive | 
26 | CC(=O)NS(=O)(=O)c1ccc2c(c1)C(=O)c1cc(S(=O)(=O)NC(C)=O)ccc1-2 | inactive | 
27 | CCCCn1c(N)c(N(CC(C)C)C(=O)C2CCCN(C(=O)c3ccc(Cl)cc3)C2)c(=O)[nH]c1=O (configuration not stated) | inactive | 
28 | Cc1cccc(NC(=O)CNC(=O)CCc2nc3sc4c(c3c(=O)[nH]2)CCCC4)c1C | active: 39.8 µM | 
29 | COc1cccc(-c2cc3nc4c(c(NCC(C)(C)CN(C)C)n3n2)CCCC4)c1 | inconclusive: 22.4 µM [inhibitor, single point] | 
30 | CCc1ccc([C@H]2C(C(=O)O)=C[C@@H](CC3CCCC3)N2S(=O)(=O)c2ccc(C)cc2)cc1 | inconclusive: 50.1 µM [inhibitor, partial curve] | 
31 | COc1ccc(/C=C/C(=O)NC(=S)NNC(=O)c2c(-c3ccccc3)noc2C)cc1 | inactive | 
32 | Oc1ccc(Nc2nc(NCC3CCCO3)c3ccccc3n2)cc1 (configuration not stated) | inconclusive: 79.4 µM [inhibitor, partial curve] | 
33 | Cc1ccc(S(=O)(=O)Nc2cc3c(cc2NCc2ccccc2)n(C)c(=O)n3C)cc1 | inconclusive: 44.7 µM [inhibitor, partial curve] | 
34 | Cc1cc(-c2[nH]nc3c2C(c2ccc(Cl)cc2)C(C#N)=C(N)O3)c(C)s1 (configuration not stated) | inconclusive: 79.4 µM [inhibitor, partial curve] | 
35 | COc1ccc2ccccc2c1CNCc1ccccn1 | inconclusive: 56.2 µM [inhibitor, partial curve] | 
36 | Cc1cccc(NC(=O)CN2C(=O)N/C(=C\c3ccccc3OCc3ccc(C(=O)O)cc3)C2=O)c1 | inconclusive: 50.1 µM [inhibitor, partial curve] | 
37 | COc1ccc(NC(=O)c2ccc(NCCCN3CCOCC3)c([N+](=O)[O-])c2)cc1 | inconclusive: 63.1 µM [inhibitor, partial curve, poor fit] | 
38 | COc1ccc2c(c1)CC(C(=O)NCCCN1CCN(c3cccc(Cl)c3)CC1)CO2 (configuration not stated) | inconclusive: 39.8 µM [inhibitor, partial curve] | 
39 | O=C(Nc1nc(-c2cccs2)cs1)C1=COCCO1 | active: 14.1 µM | 
40 | CS(=O)(=O)c1ccc2nc(NC(=O)C3CC(=O)N(c4ccccc4)C3)sc2c1 (configuration not stated) | inconclusive: 22.4 µM [inhibitor, single point] | 
41 | CCN1CCN(C(=S)Nc2cccc([N+](=O)[O-])c2)CC1 | inactive | 
42 | CN1CCN(C(=O)CCC(=O)O)CC1 |  | inactive: 5.88% [at 11.4 µM]
43 | Cc1ccc(C(=O)CN2/C(=C(\O)c3ccccc3)C(=O)c3ccccc3S2(=O)=O)c(C)c1 | inconclusive: 100 µM [inhibitor, single point] | 
44 | Cc1c(C)n(Cc2ccc(F)cc2)c2ccc(C(=O)NCc3ccco3)cc12 | inconclusive: 31.6 µM [inhibitor, partial curve] | 
45 | CC1(C)CC(=O)c2cc(NC(=O)c3ccc(F)cc3)c(=O)oc2C1 | inconclusive: 100 µM [inhibitor, single point] | 
46 | O=C(CCC(=O)N1CCN(S(=O)(=O)c2ccc([N+](=O)[O-])cc2)CC1)N1CCOCC1 | inactive | 
47 | Cc1ccc(CC(=O)NCc2ccc(Cl)cc2)cc1 | inconclusive: 25.1 µM [inhibitor, single point] | 
48 | O=C(CSc1ncc(-c2ccccc2)[nH]1)Nc1ccc(Cl)cc1 | inconclusive: 31.6 µM [inhibitor, partial curve] | 

Row | Structure (SMILES) | Potency | activity change, negative = inhibition
49 | Cc1nc(CN2CCN(S(=O)(=O)c3c(Cl)cc(Br)cc3Cl)CC2)cs1 | active: 35.5 µM | 
50 | O=C(N/N=C/c1ccc(O)c([N+](=O)[O-])c1)C1CC1(c1ccccc1)c1ccccc1 (configuration not stated) | inconclusive: 56.2 µM [inhibitor, partial curve] | 
51 | CCn1c(CC(C)C)n[nH]c1=S | inconclusive: 17.8 µM [inhibitor, partial curve] | 
52 | Cn1c(=O)c2cn(-c3ccccc3)cc2n(C)c1=O | inactive | 
53 | CN(CC(=O)Nc1ccccc1Br)C(=O)CN1CCN(Cc2cccc(Cl)c2)CC1 | inactive | 
54 | Cc1c(Cl)cccc1NC(=S)N(Cc1cccnc1)Cc1ccccc1Cl | inactive | 
55 | CCCCN(C)C(=O)C1CCN(Cc2cccnc2)CC1 | active: 28.2 µM | 
56 | Cc1ccc(C(NC(=O)C(C)C)c2cc([N+](=O)[O-])c3cccnc3c2O)cc1 (configuration not stated) | active: 25.1 µM | 
57 | COc1cc(OC)c(N(C)C(=O)c2cn(C3CCCC3)c(=O)c3c2c2ccccc2n3C)cc1Cl | inconclusive: 11.2 µM [inhibitor, partial curve, poor fit] | 
58 | CCN(CC)CC(=O)NN(Cc1ccccc1)c1ccccc1 | active: 17.8 µM | 
59 | CN(Cc1ccccc1)S(=O)(=O)c1ccc2[nH]c3c(c2c1)CCCCC3 | inconclusive: 17.8 µM [inhibitor, full curve] | 
60 | CC(C)CCCC(C)CCOC(=O)CN1CCCC1 (configuration not stated) | inactive | 
61 | c1nc(NCCc2cnc[nH]2)c2cc(-c3ccc4c(c3)OCO4)ccc2n1 | inconclusive: 63.1 µM [inhibitor, partial curve, poor fit] | 
62 | OCCNCCCOc1cc(Cl)ccc1Cl | inactive | 
63 | Cc1ccc(S(=O)(=O)N/N=C\c2ccc(C)o2)cc1 | inconclusive: 50.1 µM [inhibitor, partial curve] | 
64 | CCc1nnc(NC(=O)CN2CCOCC2)s1 | inconclusive: 28.2 µM [inhibitor, partial curve] | 
65 | O=C(Nc1cccc(C(F)(F)F)c1)N1CC2CCCN2c2ccccc21 (configuration not stated) | active: 50.1 µM | 
66 | Cc1nn(Cc2ccc(F)cc2)c(C)c1NC(=O)c1cc2ncc(Br)cn2n1 | inconclusive: 79.4 µM [inhibitor, partial curve] | 
67 | CCn1c(C(=O)N2CCc3ccccc3C2)cc2sccc21 | inactive | 
68 | CC(Nc1cc(N2CCN(C(=O)C(C)(C)C)CC2)ccc1[N+](=O)[O-])c1ccccc1 (configuration not stated) | inconclusive: 20 µM [inhibitor, full curve] | 
69 | Cc1ccc(CN(C(=O)C(F)(F)F)C(C(=O)NC2CCCCC2)c2ccco2)cc1 (configuration not stated) | inconclusive: 79.4 µM [inhibitor, partial curve] | 
70 | COc1ccc(NC(=O)c2c(C)oc3ccc(O)c(CN4CCN(Cc5ccccc5)CC4)c23)cc1Cl | inconclusive: 50.1 µM [inhibitor, partial curve] | 
71 | O=C(CSc1nncc(=O)[nH]1)NCc1ccccc1 | active: 39.8 µM | 
72 | CC[C@@H](C)[C@H](CNC)NC[C@@H](Cc1cccc2ccccc12)NCCc1cccc(C(F)(F)F)c1 | inconclusive: 20 µM [inhibitor, full curve] | 
